Measured values reported in publication PMC12136788.
The other results are listed elsewhere or left out.

T1: UNK ZnF1-3 (human, UniProt Q9C0B0 31-174)
T1 sequence: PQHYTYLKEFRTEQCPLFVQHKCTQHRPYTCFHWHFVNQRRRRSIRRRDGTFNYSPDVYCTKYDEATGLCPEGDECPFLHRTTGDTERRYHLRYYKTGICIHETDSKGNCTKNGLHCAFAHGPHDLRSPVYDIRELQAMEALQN

B1: chr18:54278284:54278285:-_ENSG00000091164_ENST00000590954|hu_hu|FALSE|FALSE (ssRNA)
RNA: GGGAGUUCUACAGUCCGACGAUCGAAGUCAUUCAUAUUUGUUGCCUGGACUGGAGUACCAAUAAAAGUAAAAUAUGAAAUUCUUGUUGUUUCCUCUUCACCUUGAUUCGACUGAACAAAUAUAGUUACACUGUUAACAUUCUGCAACAGAGGAUUGAGCAUCA
B2: chr20:43533720:43533721:+_ENSG00000166913_ENST00000353703|hu_mus|FALSE|FALSE (ssRNA)
RNA: GGGAGUUCUACAGUCCGACGAUCAAAUGCCGUUUUGGCCAGGCUGCAGGCCUUUUCAGGAGAGUUUAGAAUCUCAUAGUAAAAGACUGAGAAAUUCAGCGCCAGGCCGAGGCGAAUCGGGUGUGUAGGCUGCAUUUCUUUCUUCAACAGAGGAUUGAGCAUCA
B3: chr18:10010065:10010066:-_ENSMUSG00000047879_ENSMUST00000092096|mus_hu|motif|central (ssRNA)
RNA: GGGAGUUCUACAGUCCGACGAUCUAGAAUAAUAGGUGGAAUACUGGAAGAAGUUUUAUCCAUGGAAUCAAACAAAUCUCGGAGGGCUGCAGUAAUAUACUGCGCUGAAGCCAUUUCCCCUGAAGCUCUCAAGGCACCUGCAUACAACAGAGGAUUGAGCAUCA
B4: 9989091_9989211_2070_3pUTR_ENSMUSG00000040396_ENSMUST00000048216|mouse|control|control (ssRNA)
RNA: GGGAGUUCUACAGUCCGACGAUCUUAGCUGAAGAUUCACAAACUGACAGGCUAAAAUUUCAUCUGCAACCAAAAUCACUAAUGUUAAAAAGUUCACUAUACAAAGAAAGCUGUAGUAAGAUGCUAACCUCCUAUCUCACUAGCCAACAGAGGAUUGAGCAUCA
B5: 100011793_100013483_2660_CDS_ENSMUSG00000023026_ENSMUST00000100203|mouse|control|control (ssRNA)
RNA: GGGAGUUCUACAGUCCGACGAUCCACAAUGCGCUCGUCAUAAAACACAGACACAGAAAACACAGCAAUUCUUCCUCGAUAGACGGUCUUUAUGGACUCCACAGCCAAUCCAGUAGCAACAAUGUCAUCGGCGUUAUGUCUUCGCAACAGAGGAUUGAGCAUCA
B6: 31483727_31486627_2202_CDS_ENSG00000113360_ENST00000513349|human|control|control (ssRNA)
RNA: GGGAGUUCUACAGUCCGACGAUCCAAAGGACCUUUAAGAUUCCAGUCAUAUAAUUCCAAAAUAUCUCUGAAUAGGAACAGUGAAAAGAGUUCAAGCCCUUUCACACAAAAAUUCUCCGGCAUCAUCUCUUCAAUGAAAUGAAUCAACAGAGGAUUGAGCAUCA
B7: chr4:76721835:76721836:+_ENSG00000138768_ENST00000264904|hu_mus|hu_hu_hu_mus_True|68_88 (ssRNA)
RNA: GGGAGUUCUACAGUCCGACGAUCGUUUGGCUGGGGUUUCUGAGACGUCUGGAAUACUAACUCAUGUUGCUAAUAAAAUCCUAGUUUCUCUAUGAAAUUCUCUUUGCCAAUCCUCUUCUCUAUUAGUUGCUUUAGUUUCUCUUUCAACAGAGGAUUGAGCAUCA
B8: 114964141_114967215_2001_CDS_ENSG00000197323_ENST00000358465|human|control|control (ssRNA)
RNA: GGGAGUUCUACAGUCCGACGAUCGCUGGUGGGACCUCGGUUUGCAUUUGCCAUAGUUGCUGUAGUAGGGCUCGUUGGGUUGAUUGUGGUGUUGUGUACCGAUACUACGGGAAAGGGUCCAGCAUGCCCUGGGUUUGAGUGUUGCAACAGAGGAUUGAGCAUCA
B9: chr18:35748043:35748044:+_ENSMUSG00000037236_ENSMUST00000166793|perfect_dup|FALSE|FALSE (ssRNA)
RNA: GGGAGUUCUACAGUCCGACGAUCUGUAUAAAAGAGUGAACACAGCUUACAGUAAAACCCUGUUUUAGGUAUCACAUAGUCUAUACCAACAGGAACAUUAGGCUGAUAUGGUCCGAUUCUAUACUCAUCGGGAAUUGUAUAAUCCAACAGAGGAUUGAGCAUCA
B10: chr11:86518203:86518204:-_ENSMUSG00000047126_ENSMUST00000103186|perfect_dup|FALSE|FALSE (ssRNA)
RNA: GGGAGUUCUACAGUCCGACGAUCGAACAGCUCCAGGUGCUCCCUCAUUUUCUGAGGCUUAAAUUUAGAGUAUAGAAUAGCUAAUUCAGUAAACAUUCCCAUGUGAGCUCGCUCAAGUCCCAGUGCUGCUUCCAACAUGGUGAUCAACAGAGGAUUGAGCAUCA
B11: chr16:94690093:94690094:+_ENSMUSG00000040785_ENSMUST00000117648|mus_hu|mus_mus_mus_hu_True|1_88 (ssRNA)
RNA: GGGAGUUCUACAGUCCGACGAUCGGGCUGGGAUGACGGACACACAGAUCUUCCCAGAGGGGGAAAAAGUCUUAGUCGAUACUAAUUAAAAAGUGUUAAUGAUUUUUGAAAAUCAGAUUACAUCUAUAAAAGAUGAAAGCACUUCAACAGAGGAUUGAGCAUCA
B12: 61441815_61442215_1866_3pUTR_ENSG00000126814_ENST00000261249|human|control|control (ssRNA)
RNA: GGGAGUUCUACAGUCCGACGAUCAACAUUUCCAAUUAAGUGUUUGAAACAAUUUGUGUUUUUUCGUCUGAAAAGGCUUCAGCCGUCCUCUGCCUUUUAAGAGGUGGAUCUUCAUGAUUCUCUGGAUUUCUGGUCUGGUUCUUGCAACAGAGGAUUGAGCAUCA
B13: 145239554_145239674_443_3pUTR_ENSMUSG00000074182_ENSMUST00000098534|mouse|control|control (ssRNA)
RNA: GGGAGUUCUACAGUCCGACGAUCUAUCCGCCUCCUGCUUCACUUCCAACACGCCUUUCUCAUCCUUCACCUCGGGCCCGCCCUCCACCUCCUGCUUCACCCACUGGCUGUCCGCAACACCACUGUCUAAAUCCGACCAGUCUACAACAGAGGAUUGAGCAUCA
B14: chr2:62099399:62099400:-_ENSG00000115484_ENST00000544079|hu_mus|motif|central (ssRNA)
RNA: GGGAGUUCUACAGUCCGACGAUCGUAGGACUCCAUACCACUCAGUGUUCGGGAGUACUCUGUCAGUCUGAGGGCCAGCUCGGUUUCUGGAGCACCACCUCCUGCAAUAAGAGCUCUUUUCUUUACUAAGCAUCGGAUGACACACAACAGAGGAUUGAGCAUCA
B15: 143837486_143841914_1812_CDS_ENSMUSG00000045078_ENSMUST00000053498|mouse|control|control (ssRNA)
RNA: GGGAGUUCUACAGUCCGACGAUCCAGCUCCUCAAAUGGAAACUCCCCAUAGCAACAGCGGCAUUCAAUCAGCUGGCCAUCCUUUUGAUACUGUUCUUCAUUCAUCUGCAGGGCGAGCAAGAAGUCUUCAUGCUCUGCCAUCUCCAACAGAGGAUUGAGCAUCA
B16: chr1:89688648:89688649:+_ENSMUSG00000026289_ENSMUST00000027512|mus_mus|FALSE|FALSE (ssRNA)
RNA: GGGAGUUCUACAGUCCGACGAUCGAGCAGGACAGAGAAUGCUUUCCCAGCCCAGCCUUCAUCAUCACCAGCUCCUAGGUAGGCUUCUCUUACCAACACUGCACUGCACGCACAGGCAGUGGCUGGCCUCACCACUCUCUGCUCCAACAGAGGAUUGAGCAUCA
B17: chr14:76904430:76904431:+_ENSMUSG00000022010_ENSMUST00000022587|mus_hu|motif|central (ssRNA)
RNA: GGGAGUUCUACAGUCCGACGAUCUGCAGCCAAAAACACCCUCGUGGAAAAAAAGAGGGAACACCAGCAGCCUUGUAUAAGCGGGAUAAAAUCUUCUGGCUUUCCGCAGCCCAGGGAGAAACAGAAAACGGCAGCCCUAAUUUACAACAGAGGAUUGAGCAUCA
B18: chrX:76855959:76855960:-_ENSG00000085224_ENST00000373344|hu_hu|FALSE|FALSE (ssRNA)
RNA: GGGAGUUCUACAGUCCGACGAUCUGAGGCUAUAAAUUCAUCCAUACUGUCUUCAUCAAAAUAACCCUUAUUUUCUUUGCUAAUGUAGUCUAGCUGCAAACACCAAGGAUGAGUCCAUAUUCUACUUAACAUCUGAAAAUCUUGCAACAGAGGAUUGAGCAUCA
B19: chr8:108054885:108054886:-_ENSMUSG00000013160_ENSMUST00000013304|mus_hu|FALSE|FALSE (ssRNA)
RNA: GGGAGUUCUACAGUCCGACGAUCGGAGCGCUGGUGCAGCGUGCCUGUGAUGAGCAGGAUCACGUUGUCGAUCAUGUAACUGUAAGUAAUGAAGUCUAGGAAGCUGGCGAGUGGCUCAUAGGCAUGGUUCCUCAUGUGGCGGAACAACAGAGGAUUGAGCAUCA
B20: chr6:108204272:108204273:-_ENSG00000025796_ENST00000369002|hu_hu|motif|central (ssRNA)
RNA: GGGAGUUCUACAGUCCGACGAUCUUGCUCUCUAUCAGAGUCUCUGUCACUACCAUCAUCUUUCUCACUUUGGGAAUCUCGGUUGGUUUCUUCUUCUUCAGAAUCACUGCCCUUAUCUGAAACUUCUUCUUCAUCUUCCUUUACCAACAGAGGAUUGAGCAUCA
B21: chr7:135850644:135850645:-_ENSMUSG00000048170_ENSMUST00000057557|mus_hu|FALSE|FALSE (ssRNA)
RNA: GGGAGUUCUACAGUCCGACGAUCAUACAAGUGUUCUGUGAAGGUACUAUUCCGUGGGCAACCACUCAAGUUAACUGUAAAUUUUCCUAGUGGAAGGACAUCUCUUCUUGUAUAUACUGUGGAGAUGAGAUGUAAUAUAAGGUACAACAGAGGAUUGAGCAUCA
B22: chr4:144460044:144460045:+_ENSG00000153147_ENST00000283131|hu_mus|hu_hu_hu_mus_False|8_48 (ssRNA)
RNA: GGGAGUUCUACAGUCCGACGAUCACGGUCCAUAGCCUGAAGAUCAACUUGCGGAUUCCAAUCUGAGUCAUAUAAAAUGACUACAUCAGCAGUCGCAAGAUUGAUGCCCAGACCACCAGCACGUGUGCUUAACAUGAAUACAAACAACAGAGGAUUGAGCAUCA

molecular target: T1, UNK ZnF1-3; assay: nsRBNS (natural sequence RNA bind-n-seq); RBNS binding buffer (assumed for nsRBNS): 25 mM Tris pH 7.5, 150 mM KCl, 3 mM MgCl2, 0.01% Triton X-100, 500 ug/ml BSA, 20 U/ml SUPERase-In, 4 C; UNK is unkempt and MSI1 is Musashi-1; names of the RNAs are library labels; protein concentration not given here; high values mean tight binding

Binder	binding signal [enrichment R]
B1	1.27
B2	1.03
B3	1.43
B4	1.01
B5	1.25
B6	0.931
B7	0.49
B8	1.08
B9	0.418
B10	0.821
B11	1.19
B12	0.467
B13	1.1
B14	1.22
B15	1.41
B16	1.08
B17	2.45
B18	0.883
B19	0.971
B20	0.449
B21	1.34
B22	0.63
